Positions count from the first letter of the chain named. Some of the results follow.
T1: RBFOX1 RRM RbFoxmut (Fox-RRM*) (Homo sapiens, UniProt Q9NWB1 109-208, R118D;E147R;N151S;E152T)
T1 sequence: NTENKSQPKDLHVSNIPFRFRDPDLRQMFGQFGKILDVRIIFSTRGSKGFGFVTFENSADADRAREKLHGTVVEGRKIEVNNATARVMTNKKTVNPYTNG

B1: GGCCCAG (DNA:RNA)
RNA: GGGAGACCGGAAUUCAGAUUGUCCGGCCCAGUUAAAUCCCGUCGUAGCCACCA
DNA 1: CAATCTGAATTCCGGTCTCCC
DNA 2: TGGTGGCTACGACGGGATT
B2: AGGCCGC (DNA:RNA)
RNA: B1 RNA with G25A, C27G, A30G, G31C
DNA 1: CAATCTGAATTCCGGTCTCCC
DNA 2: TGGTGGCTACGACGGGATT
B3: GGCCAGG (DNA:RNA)
RNA: B1 RNA with C29A, A30G
DNA 1: CAATCTGAATTCCGGTCTCCC
DNA 2: TGGTGGCTACGACGGGATT
B4: AACAGAC (DNA:RNA)
RNA: B1 RNA with G25A, G26A, C28A, C29G, G31C
DNA 1: CAATCTGAATTCCGGTCTCCC
DNA 2: TGGTGGCTACGACGGGATT
B5: GGGCGCA (DNA:RNA)
RNA: B1 RNA with C27G, C29G, A30C, G31A
DNA 1: CAATCTGAATTCCGGTCTCCC
DNA 2: TGGTGGCTACGACGGGATT
B6: CGUACGU (DNA:RNA)
RNA: B1 RNA with G25C, C27U, C28A, A30G, G31U
DNA 1: CAATCTGAATTCCGGTCTCCC
DNA 2: TGGTGGCTACGACGGGATT
B7: UAAUGUC (DNA:RNA)
RNA: GGGAGACCGGAAUUCAGAUUGUCCUAAUGUCUUAAAUCCCGUCGUAGCCACCA
DNA 1: CAATCTGAATTCCGGTCTCCC
DNA 2: TGGTGGCTACGACGGGATT
B8: ACCACGC (DNA:RNA)
RNA: B1 RNA with G25A, G26C, C28A, A30G, G31C
DNA 1: CAATCTGAATTCCGGTCTCCC
DNA 2: TGGTGGCTACGACGGGATT
B9: GGCGGUG (DNA:RNA)
RNA: B1 RNA with C28G, C29G, A30U
DNA 1: CAATCTGAATTCCGGTCTCCC
DNA 2: TGGTGGCTACGACGGGATT
B10: AAAUAUG (DNA:RNA)
RNA: B7 RNA with U25A, G29A, C31G
DNA 1: CAATCTGAATTCCGGTCTCCC
DNA 2: TGGTGGCTACGACGGGATT
B11: GUUCAAC (DNA:RNA)
RNA: B1 RNA with G26U, C27U, C29A, G31C
DNA 1: CAATCTGAATTCCGGTCTCCC
DNA 2: TGGTGGCTACGACGGGATT
B12: GUGUACA (DNA:RNA)
RNA: B1 RNA with G26U, C27G, C28U, C29A, A30C, G31A
DNA 1: CAATCTGAATTCCGGTCTCCC
DNA 2: TGGTGGCTACGACGGGATT
B13: CGAAAGU (DNA:RNA)
RNA: B1 RNA with G25C, C27A, C28A, C29A, A30G, G31U
DNA 1: CAATCTGAATTCCGGTCTCCC
DNA 2: TGGTGGCTACGACGGGATT
B14: UCGAUAC (DNA:RNA)
RNA: B7 RNA with A26C, A27G, U28A, G29U, U30A
DNA 1: CAATCTGAATTCCGGTCTCCC
DNA 2: TGGTGGCTACGACGGGATT
B15: UUUUUCU (DNA:RNA)
RNA: B7 RNA with A26U, A27U, G29U, U30C, C31U
DNA 1: CAATCTGAATTCCGGTCTCCC
DNA 2: TGGTGGCTACGACGGGATT
B16: GAGAUUG (DNA:RNA)
RNA: B1 RNA with G26A, C27G, C28A, C29U, A30U
DNA 1: CAATCTGAATTCCGGTCTCCC
DNA 2: TGGTGGCTACGACGGGATT
B17: CGUACAG (DNA:RNA)
RNA: B1 RNA with G25C, C27U, C28A
DNA 1: CAATCTGAATTCCGGTCTCCC
DNA 2: TGGTGGCTACGACGGGATT
B18: AUGUUUC (DNA:RNA)
RNA: B7 RNA with U25A, A26U, A27G, G29U
DNA 1: CAATCTGAATTCCGGTCTCCC
DNA 2: TGGTGGCTACGACGGGATT
B19: GGGUGGG (DNA:RNA)
RNA: B1 RNA with C27G, C28U, C29G, A30G
DNA 1: CAATCTGAATTCCGGTCTCCC
DNA 2: TGGTGGCTACGACGGGATT
B20: AAAAAAU (DNA:RNA)
RNA: B7 RNA with U25A, U28A, G29A, U30A, C31U
DNA 1: CAATCTGAATTCCGGTCTCCC
DNA 2: TGGTGGCTACGACGGGATT

Each binder was assayed against T1, RBFOX1 RRM RbFoxmut (Fox-RRM*) (assay: EMSA; HiTS-Eq, 1 nM pool, 10 min; buffer printed only for the single-RNA assays: 10 mM Tris pH 7.5, 150 mM NaCl, 3.4 mM EDTA, 0.001% NP-40, 30 C). Conditions: tags: His6 N-terminal (pET28a); label: 5' 32P.
Outline: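 Purified wild-type or mutant RbFox RRM at increasing concentrations was equilibrated with 1 nM of 5′-radiolabelled RNA carrying 7 randomized nucleotides for 10 min in 50 µL. Unbound RNA was separated by 8% native PAGE and sequenced. Relative association constants came from read-count changes of each RNA species compared with the control reaction, normalised to the cognate motif.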

Binder	binding signal
B1	0.0915 KA relative to UGCAUGU
B2	0.0772 KA relative to UGCAUGU
B3	0.0786 KA relative to UGCAUGU
B4	0.0632 KA relative to UGCAUGU
B5	0.14 KA relative to UGCAUGU
B6	0.126 KA relative to UGCAUGU
B7	0.111 KA relative to UGCAUGU
B8	0.0907 KA relative to UGCAUGU
B9	0.153 KA relative to UGCAUGU
B10	0.105 KA relative to UGCAUGU
B11	0.0769 KA relative to UGCAUGU
B12	0.104 KA relative to UGCAUGU
B13	0.0835 KA relative to UGCAUGU
B14	0.0681 KA relative to UGCAUGU
B15	0.0729 KA relative to UGCAUGU
B16	0.314 KA relative to UGCAUGU
B17	0.0755 KA relative to UGCAUGU
B18	0.252 KA relative to UGCAUGU
B19	0.0733 KA relative to UGCAUGU
B20	0.0595 KA relative to UGCAUGU

Source: PMC9911399, “Two distinct binding modes provide the RNA-binding protein RbFox with extraordinary sequence specificity”
